Measured values published in the supplement of paper PMC6746778.
Structures can show the parent of a compound that is named as a salt. Some of the results follow. Most values come without repeats; read them as rough.

Tests used:
Experiment in all cases: proliferation Z-score within cell line (SRB, relative to all inhibitors screened on that line); triple-negative breast cancer lines and a kinase inhibitor library; SRB is the sulforhodamine B protein stain; higher = less growth inhibition (more resistant)
Details in all cases: concentration: 1 µM; 4 days
Bt20 = test system: Bt20
Bt549 = test system: Bt549
HCC1143 = test system: HCC1143
HCC1806 = test system: HCC1806
HCC1937 = test system: HCC1937
HCC38 = test system: HCC38
HCC70 = test system: HCC70
Hs578T = test system: Hs578T
MDA-MB-231 = test system: MDA-MB-231
MDA-MB-435s = test system: MDA-MB-435s
MDA-MB-436 = test system: MDA-MB-436
MDA-MB-453 = test system: MDA-MB-453
MDA-MB-468 = test system: MDA-MB-468
SKBR7 = test system: SKBR7
SUM1315MO2 = test system: SUM1315MO2
SUM149PT = test system: SUM149PT
SUM159PT = test system: SUM159PT
SUM185PE = test system: SUM185PE
SUM229PE = test system: SUM229PE
SUM52PE = test system: SUM52PE
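Further: Single-dose primary screen of a 378-member kinase inhibitor library in 96-well plates, with growth read as absorbance of protein-bound SRB dye after TCA fixation.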

SMILES | proliferation Z-score within cell line (Bt20) | proliferation Z-score within cell line (Bt549) | proliferation Z-score within cell line (HCC1143) | proliferation Z-score within cell line (HCC1806) | proliferation Z-score within cell line (HCC1937) | proliferation Z-score within cell line (HCC38) | proliferation Z-score within cell line (HCC70) | proliferation Z-score within cell line (Hs578T) | proliferation Z-score within cell line (MDA-MB-231) | proliferation Z-score within cell line (MDA-MB-435s) | proliferation Z-score within cell line (MDA-MB-436) | proliferation Z-score within cell line (MDA-MB-453) | proliferation Z-score within cell line (MDA-MB-468) | proliferation Z-score within cell line (SKBR7) | proliferation Z-score within cell line (SUM1315MO2) | proliferation Z-score within cell line (SUM149PT) | proliferation Z-score within cell line (SUM159PT) | proliferation Z-score within cell line (SUM185PE) | proliferation Z-score within cell line (SUM229PE) | proliferation Z-score within cell line (SUM52PE)
CN(C)Cc1cccc(N=C(c2ccccc2)c2c(O)[nH]c3cc(C(=O)N(C)C)ccc23)c1 | 0.327 | 0.721 | 1.03 | 0.37 | 0.839 | 0.659 | 0.838 | 0.701 | 0.561 | 0.86 | 1.29 | 0.863 | 0.692 | 0.153 | 0.452 | 0.906 | 0.677 | 0.152 | 0.523 | 0.162
CNC(=O)c1cc(Oc2ccc(NC(=O)Nc3ccc(Cl)c(C(F)(F)F)c3)cc2)ccn1 [Sorafenib Tosylate] | 1 | 0.804 | -0.329 | 1.05 | 0.199 | 0.437 | -0.921 | 0.582 | 0.449 | 0.471 | -0.142 | -0.0639 | 1 | -0.796 | 0.438 | 0.615 | 0.394 | 0.0425 | 1.43 | -0.91
CCN(CC)CCCC(C)Nc1nc(C)cc(Nc2ccc3nc(C)cc(N)c3c2)n1 (stereo not given) | 0.576 | 0.631 | 0.434 | 0.649 | 0.516 | 0.292 | 0.411 | 0.474 | 0.873 | 0.795 | 0.824 | 0.705 | 0.842 | 0.647 | 1.01 | 0.832 | 0.408 | 0.853 | 0.563 | 1
Nc1ncnc2c1c(-c1cnc3[nH]ccc3c1)nn2C1CCCC1 | -1.11 | -1.24 | -1.24 | -1.06 | -1.59 | -1.67 | -1.06 | -1.8 | -1.38 | -1.16 | -1.47 | -1.34 | -0.515 | -1.36 | -1.84 | -1.51 | -1.28 | -1.29 | -1.57 | -1.23
Cn1cc(C2=C(c3cn(CCCSC(=N)N)c4ccccc34)C(=O)NC2=O)c2ccccc21 [Ro 31-8220 Mesylate] | 0.376 | -0.685 | 0.534 | 0.665 | 0.657 | 0.558 | -0.427 | 0.289 | -0.693 | -0.492 | -1.77 | -0.551 | -1.48 | 0.329 | 1.02 | 0.611 | 0.415 | 1.23 | -0.065 | 0.499
Cc1ccc(NC(=O)c2ccc(CN3CCN(C)CC3)cc2)cc1Nc1nccc(-c2cccnc2)n1 [Imatinib Mesylate (STI571)] | 0.246 | 0.527 | 0.49 | 0.678 | 0.691 | 0.0856 | 0.424 | 0.388 | 1.08 | 0.685 | 0.375 | 0.449 | 1.1 | -0.235 | 0.817 | 0.663 | 0.408 | 0.695 | 0.492 | 1.02
NC1(c2ccc(-c3nc4ccn5c(=O)[nH]nc5c4cc3-c3ccccc3)cc2)CCC1 | -0.72 | -0.605 | -0.0918 | 0.652 | -0.551 | 0.5 | -1.2 | -0.556 | 0.512 | 0.604 | -0.422 | -2 | -0.996 | 0.377 | 0.203 | 0.225 | -0.0627 | -1.79 | 0.87 | -1.23
C1=N/C2=N/c3ccc(OCCN4CCCC4)c(c3)COC/C=C/COCc3cccc(c3)C(=C1)N2 [Pacritinib (SB1518)] | -0.713 | -0.102 | -0.655 | -0.844 | -1.28 | 0.411 | -0.224 | -0.0537 | -1.74 | -1.37 | -1.91 | -0.988 | -1.28 | -1.31 | -0.234 | -0.369 | -0.149 | -1.17 | -1.25 | -0.771
CO[C@H]1C[C@@H]2CC[C@@H](C)[C@@](O)(O2)C(=O)C(=O)N2CCCC[C@H]2C(=O)O[C@H]([C@H](C)C[C@@H]2CC[C@H](n3cnnn3)[C@H](OC)C2)CC(=O)[C@H](C)/C=C(\C)[C@@H](O)[C@@H](OC)C(=O)[C@H](C)C[C@H](C)/C=C/C=C/C=C/1C [Zotarolimus(ABT-578)] | -1.37 | -1.42 | -0.847 | 0.502 | -1.82 | -0.442 | -2.22 | -2.37 | -0.846 | -0.985 | -1.5 | -1.78 | -1.03 | -1.66 | -0.628 | -0.568 | -0.85 | -1.27 | -1.19 | -1.27
CO[C@H]1C[C@@H]2CC[C@@H](C)[C@@](O)(O2)C(=O)C(=O)N2CCCC[C@H]2C(=O)O[C@H]([C@H](C)C[C@@H]2CC[C@@H](OP(C)(C)=O)[C@H](OC)C2)CC(=O)[C@H](C)/C=C(\C)[C@@H](O)[C@@H](OC)C(=O)[C@H](C)C[C@H](C)/C=C/C=C/C=C/1C [Ridaforolimus (Deforolimus, MK-8669)] | -1.46 | -2.35 | -0.367 | 0.0142 | -1.11 | -0.959 | -1.49 | -2.7 | -0.8 | -0.715 | -1.36 | -1.84 | -0.813 | -1.33 | -0.708 | -0.619 | -0.603 | -1.11 | -1.05 | -0.994
O=C(c1ccc(/C=C/c2n[nH]c3ccccc23)cc1)N1CCNCC1 | 0.855 | 0.0347 | -1.11 | 0.14 | 0.181 | 0.353 | 0.414 | 0.23 | -0.136 | -0.0947 | 0.329 | -0.116 | -0.16 | -0.237 | -0.398 | 0.451 | -0.299 | -0.484 | 0.164 | -0.866
Cc1cn(-c2cc(NC(=O)c3ccc(C)c(Nc4nccc(-c5cccnc5)n4)c3)cc(C(F)(F)F)c2)cn1 [Nilotinib (AMN-107)] | 1.2 | 0.247 | 0.952 | 1.47 | 0.737 | 0.614 | 0.755 | 0.117 | 0.864 | 1.02 | 0.631 | 0.573 | 1.03 | 0.664 | 1.18 | 1.26 | 0.664 | 1.14 | 1.45 | 1.22
CNC(=O)c1cccc(-c2ccc3c(N4CCOC[C@@H]4C)nc(N4CCOC[C@@H]4C)nc3n2)c1 | -1.41 | -1.86 | -1.48 | -1.15 | -1.75 | -0.901 | -1.73 | -2.04 | -1.2 | -1.45 | -1.64 | -1.54 | -1.18 | -1.64 | -1.5 | -1.18 | -1.33 | -1.44 | -1.29 | -1.19
CCNc1nc(Nc2cc(F)c(C(=O)N3CCOCC3)cc2OC)ncc1C(F)(F)F | 0.778 | 0.479 | 0.567 | 0.915 | 0.408 | 0.41 | 0.484 | 0.553 | 0.621 | 0.637 | 0.494 | 0.623 | 0.764 | 0.719 | 0.822 | 0.479 | 0.414 | 0.671 | 0.209 | 0.79
CNC(=O)c1ccccc1Sc1ccc2c(/C=C/c3ccccn3)n[nH]c2c1 [Axitinib] | 0.42 | 0.8 | 0.446 | 0.847 | 0.582 | 0.334 | 0.456 | 0.564 | 0.236 | 0.313 | 1.06 | 0.74 | -0.541 | 0.655 | -1.06 | 0.772 | 0.42 | -1.64 | 0.453 | -2.08
O=S(=O)(NCCNCC=Cc1ccc(Br)cc1)c1cccc2cnccc12 | 0.937 | 0.582 | -2.14 | 0.501 | -2.56 | 0.606 | -0.751 | 0.712 | 0.655 | 0.921 | -2.32 | 0.917 | 0.819 | -0.0696 | 1.2 | 0.458 | -3.56 | 1.1 | 0.569 | 1.63
Cc1cc(N2CCOCC2)cc2[nH]c(-c3c(NCC(O)c4cccc(Cl)c4)cc[nH]c3=O)nc12 (stereo not given) | 0.443 | 0.345 | -0.187 | -0.616 | 0.411 | 0.374 | 0.509 | 0.301 | -0.848 | -1.28 | 0.4 | 0.684 | -0.0956 | -0.616 | -1.22 | -1.61 | 0.401 | -1.11 | -1.05 | -0.408
C[C@@H](N)[C@H]1CC[C@H](C(=O)Nc2ccncc2)CC1 | 0.973 | 0.618 | 0.675 | 0.549 | 0.86 | 0.503 | 0.786 | 0.619 | 0.913 | 0.997 | 0.928 | 0.911 | 0.913 | 0.913 | 1.22 | 0.742 | 0.357 | 1.26 | 1.28 | 1.56
COc1cc2c(Oc3ccc(NC(=O)C4(C(=O)Nc5ccc(F)cc5)CC4)cc3F)ccnc2cc1OCCCN1CCOCC1 | -0.832 | 0.767 | 0.773 | 0.493 | 0.399 | 0.416 | 0.877 | -0.00111 | -1.04 | -1.7 | 0.657 | 0.439 | -1.35 | -0.301 | -0.43 | -0.445 | 0.601 | -1.63 | -0.69 | -1.36
O=C1NC(=O)/C(=C/c2ccc3c(c2)OC(F)(F)O3)S1 | 0.763 | 0.827 | 0.811 | 0.929 | 0.737 | 0.597 | 0.763 | 0.723 | 0.881 | 0.917 | 0.747 | 1.06 | 1.15 | 0.961 | 1.27 | 1.05 | 0.641 | 1.31 | 0.78 | 1.26
O=C(Cc1ccc(-c2ccc(OCCN3CCOCC3)cc2)cn1)NCc1ccccc1 | -0.739 | -1.74 | -1.61 | -1.42 | -0.78 | -2.15 | -0.655 | -1.31 | -1.37 | -1.12 | -1.75 | -1.24 | -1.46 | -1.74 | -1.47 | -1.38 | -2.18 | -0.802 | -0.846 | -1.09
COc1ccc(-c2nc(N3CCOCC3)c3sc(CN(C)c4ncc(C(=O)NO)cn4)cc3n2)cn1 | -2.05 | -1.81 | -1.92 | -1.99 | -1.55 | -2.4 | -1.03 | -2.16 | -1.69 | -1.82 | -1.84 | -1.55 | -1.55 | -1.78 | -1.97 | -2.04 | -2.29 | -1.6 | -1.97 | -1.19
COc1ccc(S(=O)(=O)N(C(C)=O)c2ccccc2/C=C/c2cc[n+]([O-])cc2)cc1 | -1.56 | -1.35 | -0.42 | -1.54 | -0.586 | -2.48 | 0.511 | -1.75 | -0.855 | -1.68 | -0.25 | -1.89 | -1.76 | -2.2 | -1.94 | -1.5 | 0.428 | -0.904 | -1.66 | -1
Cc1cnc(-c2cnc(NCCNc3ccc(C#N)cn3)nc2-c2ccc(Cl)cc2Cl)[nH]1 | 1.28 | 0.768 | 0.742 | 0.715 | 0.891 | 0.48 | 0.603 | 0.543 | 0.143 | 0.688 | 1 | 0.623 | 1.09 | 0.321 | 2.5 | 1.1 | 0.351 | 1.72 | 1.6 | 1.28
